Here are results for twelve sequences from the supplement of paper PMC12230231.

± gives the standard deviation of the averaged measurements. Restriction of a single-cycle SIVsab GFP reporter by TRIM5α v1-loop variants in CRFK cells. Human variants: read share among cells still uninfected after two challenges over input, higher = gained restriction. Rhesus variants: share among infected cells over input, higher = lost restriction. Reporter dose not given per row. No active / inactive call per row; the paper calls a change when both replicates lie above its controls (mean + 2 SD of stop or wild-type variants, or the top frameshift score). Residues outside the varied loop are taken from Swiss-Prot. The paper reads the human single-substitution scores as noise; they and the rhesus combinations repeat poorly (rank correlation 0.3 to 0.4), indel scores repeat only for the top variants, rhesus substitutions well (0.9).

For the data set, the system named is SIVsab (simian immunodeficiency virus of sabaeus monkeys), single-cycle GFP reporter, in CRFK cells. Kind of data set: enrichment among uninfected cells over input (fold); higher = stronger restriction. The note with it: library: insertions and deletions. The protocol:
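Pools of CRFK cells expressing variants of the TRIM5α v1 loop were challenged with the single-cycle reporter, sorted by GFP and sequenced; mean of two replicates.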
In the case of “MASGILVNVKEEVTCPICLELLTQPLSLDCGHSFCQACLTANHKKSMLDKGESSCPVCRISYQPENIRPNRHVANIVEKLREVKLSPEGQKVDHCARHGEKLLLFCQEDGKVICWLCERSQEHRGHHTFLTEEVAREYQVKLQAALEMLRQKQQEAEELEADIREEKASWKTQIQYDKTNVLADFEQLRDILDWEESNELQNLEKEEEDILKSLTNSETEMVQQTQSLRELISDLEHRLQGSVMELLQGVDGVIKRTENVTLKKPETFPKNQRRVFRAPDLKGMLEVFRELTDVRRYWVDVTVAPNNISCAVISEDKRQVSSPKPQIIYRGTRYQTFVNFNYCTGILGSQSITSGKHYWEVDVSKKTAWILGVCAGFQPDAMCNIEKNENYQPKYGYWVIGLEEGVKCSAFQDSSFHTPSVPFIVPLSVIICPDRVGVFLDYEACTVSFFNITNHGFLIYKFSHCSFSQPVFPYLNPRKCGVPMTLCSPSS [human TRIM5α, 2-codon deletion at 330]”, the enrichment is 0.469 ± 0.33. Sequence “MASGILVNVKEEVTCPICLELLTQPLSLDCGHSFCQACLTANHKKSMLDKGESSCPVCRISYQPENIRPNRHVANIVEKLREVKLSPEGQKVDHCARHGEKLLLFCQEDGKVICWLCERSQEHRGHHTFLTEEVAREYQVKLQAALEMLRQKQQEAEELEADIREEKASWKTQIQYDKTNVLADFEQLRDILDWEESNELQNLEKEEEDILKSLTNSETEMVQQTQSLRELISDLEHRLQGSVMELLQGVDGVIKRTENVTLKKPETFPKNQRRVFRAPDLKGMLEVFRELTDVRRYWVDVTVAPNNISCAVISEDKRQVSSPKPQIIYRYQTFVNFNYCTGILGSQSITSGKHYWEVDVSKKTAWILGVCAGFQPDAMCNIEKNENYQPKYGYWVIGLEEGVKCSAFQDSSFHTPSVPFIVPLSVIICPDRVGVFLDYEACTVSFFNITNHGFLIYKFSHCSFSQPVFPYLNPRKCGVPMTLCSPSS [human TRIM5α, 5-codon deletion at 330]” returned an enrichment of 0.825 ± 0.25. Regarding “MASGILVNVKEEVTCPICLELLTQPLSLDCGHSFCQACLTANHKKSMLDKGESSCPVCRISYQPENIRPNRHVANIVEKLREVKLSPEGQKVDHCARHGEKLLLFCQEDGKVICWLCERSQEHRGHHTFLTEEVAREYQVKLQAALEMLRQKQQEAEELEADIREEKASWKTQIQYDKTNVLADFEQLRDILDWEESNELQNLEKEEEDILKSLTNSETEMVQQTQSLRELISDLEHRLQGSVMELLQGVDGVIKRTENVTLKKPETFPKNQRRVFRAPDLKGMLEVFRELTDVRRYWVDVTVAPNNISCAVISEDKRQVSSPKPQIIYTFVNFNYCTGILGSQSITSGKHYWEVDVSKKTAWILGVCAGFQPDAMCNIEKNENYQPKYGYWVIGLEEGVKCSAFQDSSFHTPSVPFIVPLSVIICPDRVGVFLDYEACTVSFFNITNHGFLIYKFSHCSFSQPVFPYLNPRKCGVPMTLCSPSS [human TRIM5α, 8-codon deletion at 330]”, the enrichment came out at 3.19 ± 3.6. As for “MASGILVNVKEEVTCPICLELLTQPLSLDCGHSFCQACLTANHKKSMLDKGESSCPVCRISYQPENIRPNRHVANIVEKLREVKLSPEGQKVDHCARHGEKLLLFCQEDGKVICWLCERSQEHRGHHTFLTEEVAREYQVKLQAALEMLRQKQQEAEELEADIREEKASWKTQIQYDKTNVLADFEQLRDILDWEESNELQNLEKEEEDILKSLTNSETEMVQQTQSLRELISDLEHRLQGSVMELLQGVDGVIKRTENVTLKKPETFPKNQRRVFRAPDLKGMLEVFRELTDVRRYWVDVTVAPNNISCAVISEDKRQVSSPKPQIIYTRYQTFVNFNYCTGILGSQSITSGKHYWEVDVSKKTAWILGVCAGFQPDAMCNIEKNENYQPKYGYWVIGLEEGVKCSAFQDSSFHTPSVPFIVPLSVIICPDRVGVFLDYEACTVSFFNITNHGFLIYKFSHCSFSQPVFPYLNPRKCGVPMTLCSPSS [human TRIM5α, 4-codon deletion at 330]”, the figure is 0.584 ± 0.052; as for “MASGILVNVKEEVTCPICLELLTQPLSLDCGHSFCQACLTANHKKSMLDKGESSCPVCRISYQPENIRPNRHVANIVEKLREVKLSPEGQKVDHCARHGEKLLLFCQEDGKVICWLCERSQEHRGHHTFLTEEVAREYQVKLQAALEMLRQKQQEAEELEADIREEKASWKTQIQYDKTNVLADFEQLRDILDWEESNELQNLEKEEEDILKSLTNSETEMVQQTQSLRELISDLEHRLQGSVMELLQGVDGVIKRTENVTLKKPETFPKNQRRVFRAPDLKGMLEVFRELTDVRRYWVDVTVAPNNISCAVISEDKRQVSSPKPQIIYYGARGTRYQTFVNFNYCTGILGSQSITSGKHYWEVDVSKKTAWILGVCAGFQPDAMCNIEKNENYQPKYGYWVIGLEEGVKCSAFQDSSFHTPSVPFIVPLSVIICPDRVGVFLDYEACTVSFFNITNHGFLIYKFSHCSFSQPVFPYLNPRKCGVPMTLCSPSS [human TRIM5α, 1-codon duplication at 329]”, 0.692 ± 0.26. Consider “MASGILVNVKEEVTCPICLELLTQPLSLDCGHSFCQACLTANHKKSMLDKGESSCPVCRISYQPENIRPNRHVANIVEKLREVKLSPEGQKVDHCARHGEKLLLFCQEDGKVICWLCERSQEHRGHHTFLTEEVAREYQVKLQAALEMLRQKQQEAEELEADIREEKASWKTQIQYDKTNVLADFEQLRDILDWEESNELQNLEKEEEDILKSLTNSETEMVQQTQSLRELISDLEHRLQGSVMELLQGVDGVIKRTENVTLKKPETFPKNQRRVFRAPDLKGMLEVFRELTDVRRYWVDVTVAPNNISCAVISEDKRQVSSPKPQIIYYQTFVNFNYCTGILGSQSITSGKHYWEVDVSKKTAWILGVCAGFQPDAMCNIEKNENYQPKYGYWVIGLEEGVKCSAFQDSSFHTPSVPFIVPLSVIICPDRVGVFLDYEACTVSFFNITNHGFLIYKFSHCSFSQPVFPYLNPRKCGVPMTLCSPSS [human TRIM5α, 6-codon deletion at 330]”, for which the enrichment was found to be 0.486 ± 0.17. As for “MASGILVNVKEEVTCPICLELLTQPLSLDCGHSFCQACLTANHKKSMLDKGESSCPVCRISYQPENIRPNRHVANIVEKLREVKLSPEGQKVDHCARHGEKLLLFCQEDGKVICWLCERSQEHRGHHTFLTEEVAREYQVKLQAALEMLRQKQQEAEELEADIREEKASWKTQIQYDKTNVLADFEQLRDILDWEESNELQNLEKEEEDILKSLTNSETEMVQQTQSLRELISDLEHRLQGSVMELLQGVDGVIKRTENVTLKKPETFPKNQRRVFRAPDLKGMLEVFRELTDVRRYWVDVTVAPNNISCAVISEDKRQVSSPKPQIPQIIYGARGTRYQTFVNFNYCTGILGSQSITSGKHYWEVDVSKKTAWILGVCAGFQPDAMCNIEKNENYQPKYGYWVIGLEEGVKCSAFQDSSFHTPSVPFIVPLSVIICPDRVGVFLDYEACTVSFFNITNHGFLIYKFSHCSFSQPVFPYLNPRKCGVPMTLCSPSS [human TRIM5α, 3-codon duplication at 325]”, the figure is 0.156 ± 0.06; as for “MASGILVNVKEEVTCPICLELLTQPLSLDCGHSFCQACLTANHKKSMLDKGESSCPVCRISYQPENIRPNRHVANIVEKLREVKLSPEGQKVDHCARHGEKLLLFCQEDGKVICWLCERSQEHRGHHTFLTEEVAREYQVKLQAALEMLRQKQQEAEELEADIREEKASWKTQIQYDKTNVLADFEQLRDILDWEESNELQNLEKEEEDILKSLTNSETEMVQQTQSLRELISDLEHRLQGSVMELLQGVDGVIKRTENVTLKKPETFPKNQRRVFRAPDLKGMLEVFRELTDVRRYWVDVTVAPNNISCAVISEDKRQVSSPKPQIQIIYGARGTRYQTFVNFNYCTGILGSQSITSGKHYWEVDVSKKTAWILGVCAGFQPDAMCNIEKNENYQPKYGYWVIGLEEGVKCSAFQDSSFHTPSVPFIVPLSVIICPDRVGVFLDYEACTVSFFNITNHGFLIYKFSHCSFSQPVFPYLNPRKCGVPMTLCSPSS [human TRIM5α, 2-codon duplication at 326]”, 0.0033 ± 0.00036.

The sequence “MASGILVNVKEEVTCPICLELLTQPLSLDCGHSFCQACLTANHKKSMLDKGESSCPVCRISYQPENIRPNRHVANIVEKLREVKLSPEGQKVDHCARHGEKLLLFCQEDGKVICWLCERSQEHRGHHTFLTEEVAREYQVKLQAALEMLRQKQQEAEELEADIREEKASWKTQIQYDKTNVLADFEQLRDILDWEESNELQNLEKEEEDILKSLTNSETEMVQQTQSLRELISDLEHRLQGSVMELLQGVDGVIKRTENVTLKKPETFPKNQRRVFRAPDLKGMLEVFRELTDVRRYWVDVTVAPNNISCAVISEDKRQVSSPKPQIQTFVNFNYCTGILGSQSITSGKHYWEVDVSKKTAWILGVCAGFQPDAMCNIEKNENYQPKYGYWVIGLEEGVKCSAFQDSSFHTPSVPFIVPLSVIICPDRVGVFLDYEACTVSFFNITNHGFLIYKFSHCSFSQPVFPYLNPRKCGVPMTLCSPSS [human TRIM5α, 9-codon deletion at 328]” had an enrichment of 1.4 ± 0.73. For “MASGILVNVKEEVTCPICLELLTQPLSLDCGHSFCQACLTANHKKSMLDKGESSCPVCRISYQPENIRPNRHVANIVEKLREVKLSPEGQKVDHCARHGEKLLLFCQEDGKVICWLCERSQEHRGHHTFLTEEVAREYQVKLQAALEMLRQKQQEAEELEADIREEKASWKTQIQYDKTNVLADFEQLRDILDWEESNELQNLEKEEEDILKSLTNSETEMVQQTQSLRELISDLEHRLQGSVMELLQGVDGVIKRTENVTLKKPETFPKNQRRVFRAPDLKGMLEVFRELTDVRRYWVDVTVAPNNISCAVISEDKRQVSSPKPQIRGTRYQTFVNFNYCTGILGSQSITSGKHYWEVDVSKKTAWILGVCAGFQPDAMCNIEKNENYQPKYGYWVIGLEEGVKCSAFQDSSFHTPSVPFIVPLSVIICPDRVGVFLDYEACTVSFFNITNHGFLIYKFSHCSFSQPVFPYLNPRKCGVPMTLCSPSS [human TRIM5α, 4-codon deletion at 328]”, the enrichment was 0.425 ± 0.15.

“MASGILVNVKEEVTCPICLELLTQPLSLDCGHSFCQACLTANHKKSMLDKGESSCPVCRISYQPENIRPNRHVANIVEKLREVKLSPEGQKVDHCARHGEKLLLFCQEDGKVICWLCERSQEHRGHHTFLTEEVAREYQVKLQAALEMLRQKQQEAEELEADIREEKASWKTQIQYDKTNVLADFEQLRDILDWEESNELQNLEKEEEDILKSLTNSETEMVQQTQSLRELISDLEHRLQGSVMELLQGVDGVIKRTENVTLKKPETFPKNQRRVFRAPDLKGMLEVFRELTDVRRYWVDVTVAPNNISCAVISEDKRQVSSPKPQIRYQTFVNFNYCTGILGSQSITSGKHYWEVDVSKKTAWILGVCAGFQPDAMCNIEKNENYQPKYGYWVIGLEEGVKCSAFQDSSFHTPSVPFIVPLSVIICPDRVGVFLDYEACTVSFFNITNHGFLIYKFSHCSFSQPVFPYLNPRKCGVPMTLCSPSS [human TRIM5α, 7-codon deletion at 328]” displayed an enrichment of 0.937 ± 0.4.

“MASGILVNVKEEVTCPICLELLTQPLSLDCGHSFCQACLTANHKKSMLDKGESSCPVCRISYQPENIRPNRHVANIVEKLREVKLSPEGQKVDHCARHGEKLLLFCQEDGKVICWLCERSQEHRGHHTFLTEEVAREYQVKLQAALEMLRQKQQEAEELEADIREEKASWKTQIQYDKTNVLADFEQLRDILDWEESNELQNLEKEEEDILKSLTNSETEMVQQTQSLRELISDLEHRLQGSVMELLQGVDGVIKRTENVTLKKPETFPKNQRRVFRAPDLKGMLEVFRELTDVRRYWVDVTVAPNNISCAVISEDKRQVSSPKPQITRYQTFVNFNYCTGILGSQSITSGKHYWEVDVSKKTAWILGVCAGFQPDAMCNIEKNENYQPKYGYWVIGLEEGVKCSAFQDSSFHTPSVPFIVPLSVIICPDRVGVFLDYEACTVSFFNITNHGFLIYKFSHCSFSQPVFPYLNPRKCGVPMTLCSPSS [human TRIM5α, 6-codon deletion at 328]”: the enrichment was determined as 0.747 ± 0.73.
